# Test results: the supplement of paper PMC8728848
# The full list was thinned out, with the strongest signals kept by preference.
# B1: Properdin (Homo sapiens), P27918 (protein)
# chain: MITEGAQAPRLLLPPLLLLLTLPATGSDPVLCFTQYEESSGKCKGLLGGGVSVEDCCLNTAFAYQKRSGGLCQPCRSPRWSLWSTWAPCSVTCSEGSQLRYRRCVGWNGQCSGKVAPGTLEWQLQACEDQQCCPEMGGWSGWGPWEPCSVTCSKGTRTRRRACNHPAPKCGGHCPGQAQESEACDTQQVCPTHGAWATWGPWTPCSASCHGGPHEPKETRSRKCSAPEPSQKPPGKPCPGLAYEQRRCTGLPPCPVAGGWGPWGPVSPCPVTCGLGQTMEQRTCNHPVPQHGGPFCAGDATRTHICNTAVPCPVDGEWDSWGEWSPCIRRNMKSISCQEIPGQQSRGRTCRGRKFDGHRCAGQQQDIRHCYSIQHCPLKGSWSEWSTWGLCMPPCGPNPTRARQRLCTPLLPKYPPTVSMVEGQGEKNVTFWGRPLPRCEELQGQKLVVEEKRPCLHVPACKDPEEEEL
# Key:
# Experiment in all cases: glycan array binding signal (z-score within array); higher = stronger binding
# Settings in all cases: glycan notation: IUPAC condensed, linker removed
# [1] = target: Fuc(a1-2)Gal(b1-4)GlcNAc
# Method in brief: (§1)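 Glycan array binding is given as a within-array Z-score, which can be read as non-binding when negative. The arrays, 3228 of them, came from the Consortium for Functional Glycomics database and were retained only where the protein sequence was available. Z-scores were averaged across arrays of the same protein sequence at different concentrations or buffers and across linkers.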
# [2] = target: Fuc(a1-2)[Gal(a1-4)]Gal(b1-4)GlcNAc
# Method in brief: as §1
# [3] = target: Fuc(a1-3)[Gal3S(b1-4)]GlcNAc
# Method in brief: as §1
# [4] = target: Gal(a1-2)Gal
# Method in brief: as §1
# [5] = target: Gal(a1-3)Gal(b1-3)GlcNAc
# Method in brief: as §1
# [6] = target: Gal(a1-3)[Gal(a1-4)]Gal(b1-4)GlcNAc
# Method in brief: as §1
# [7] = target: Gal(b1-3)GlcNAc(b1-3)Gal(b1-4)Glc
# Method in brief: as §1
# [8] = target: Gal(b1-3)[Fuc(a1-4)]GlcNAc(b1-3)Gal(b1-3)[Fuc(a1-4)]GlcNAc
# Method in brief: as §1
# [9] = target: Gal(b1-3)[Neu5Ac(a2-6)]GlcNAc(b1-6)Gal(b1-4)Glc
# Method in brief: as §1
# [10] = target: Gal(b1-4)Glc6S
# Method in brief: as §1
# [11] = target: Gal3S(b1-3)GlcNAc
# Method in brief: as §1
# [12] = target: Gal3S(b1-4)Glc
# Method in brief: as §1
# [13] = target: Gal3S4S(b1-4)GlcNAc
# Method in brief: as §1
# [14] = target: Gal4S6S(b1-4)GlcNAc
# Method in brief: as §1
# [15] = target: GalNAc(a1-3)GalNAc
# Method in brief: as §1
# [16] = target: Glc(a1-6)Glc(a1-6)Glc
# Method in brief: as §1
# [17] = target: GlcNAc(b1-3)Gal(b1-3)GalNAc
# Method in brief: as §1
# [18] = target: GlcNAc(b1-4)GlcNAc(b1-4)GlcNAc
# Method in brief: as §1
# [19] = target: GlcNAc(b1-4)[GlcNAc(b1-6)]GalNAc
# Method in brief: as §1
# [20] = target: Man(a1-3)[Man(a1-6)]Man
# Method in brief: as §1
# [21] = target: Man(b1-4)GlcNAc
# Method in brief: as §1
# [22] = target: Neu5Ac(a2-3)Gal(b1-3)GalNAc(b1-3)Gal(a1-4)Gal(b1-4)Glc
# Method in brief: as §1
# [23] = target: Neu5Ac(a2-3)Gal6S(b1-4)GlcNAc
# Method in brief: as §1
# [24] = target: Neu5Ac(a2-3)GalNAc(b1-4)GlcNAc
# Method in brief: as §1
# [25] = target: Neu5Ac(a2-3)[GalNAc(b1-4)]Gal(b1-4)GlcNAc
# Method in brief: as §1
# [26] = target: Neu5Ac(a2-6)Gal(b1-4)Glc
# Method in brief: as §1
# [27] = target: Neu5Gc(a2-3)Gal(b1-3)[Fuc(a1-4)]GlcNAc
# Method in brief: as §1
binder,measurement,setting,value
B1,glycan array binding signal (z-score),[1],-0.53
same,glycan array binding signal (z-score),[2],3.96
same,glycan array binding signal (z-score),[3],-0.582
same,glycan array binding signal (z-score),[4],1.18
same,glycan array binding signal (z-score),[5],0.292
same,glycan array binding signal (z-score),[6],3.93
same,glycan array binding signal (z-score),[7],4.5
same,glycan array binding signal (z-score),[8],-0.389
same,glycan array binding signal (z-score),[9],3.63
same,glycan array binding signal (z-score),[10],1.92
same,glycan array binding signal (z-score),[11],-0.079
same,glycan array binding signal (z-score),[12],-0.431
same,glycan array binding signal (z-score),[13],-0.477
same,glycan array binding signal (z-score),[14],-0.499
same,glycan array binding signal (z-score),[15],0.277
same,glycan array binding signal (z-score),[16],3.84
same,glycan array binding signal (z-score),[17],-0.322
same,glycan array binding signal (z-score),[18],1.91
same,glycan array binding signal (z-score),[19],1.04
same,glycan array binding signal (z-score),[20],-0.112
same,glycan array binding signal (z-score),[21],-0.249
same,glycan array binding signal (z-score),[22],0.235
same,glycan array binding signal (z-score),[23],-0.45
same,glycan array binding signal (z-score),[24],-0.424
same,glycan array binding signal (z-score),[25],-0.417
same,glycan array binding signal (z-score),[26],0.059
same,glycan array binding signal (z-score),[27],-0.589
